{"source": "PubChem BioAssay AID624170", "about": "(National Center for Advancing Translational Sciences (NCATS), 2012)", "note": "Out of some 410,000 compounds screened, about 850 (0.21%) were called active. The shares of active, inactive and inconclusive entries below differ from those in the screen. Calls follow the shape of the dose curve; as a rule, active = well fitted inhibition curve with a large enough effect; inconclusive = small, poorly fitted or top-dose-only effect, or another doubt; inactive = no such curve, though single readings can be large or run the other way. No potency is given beside an inconclusive call; the fits are too rough. Potency is read from the fitted curve at half-maximal effect; tags tell the direction and shape of the fitted curve."}
{"molecular_target": "Glutaminase kidney isoform, mitochondrial (Homo sapiens) (UniProt O94925)", "sequence (O94925 whole entry, looked up, canonical isoform)": "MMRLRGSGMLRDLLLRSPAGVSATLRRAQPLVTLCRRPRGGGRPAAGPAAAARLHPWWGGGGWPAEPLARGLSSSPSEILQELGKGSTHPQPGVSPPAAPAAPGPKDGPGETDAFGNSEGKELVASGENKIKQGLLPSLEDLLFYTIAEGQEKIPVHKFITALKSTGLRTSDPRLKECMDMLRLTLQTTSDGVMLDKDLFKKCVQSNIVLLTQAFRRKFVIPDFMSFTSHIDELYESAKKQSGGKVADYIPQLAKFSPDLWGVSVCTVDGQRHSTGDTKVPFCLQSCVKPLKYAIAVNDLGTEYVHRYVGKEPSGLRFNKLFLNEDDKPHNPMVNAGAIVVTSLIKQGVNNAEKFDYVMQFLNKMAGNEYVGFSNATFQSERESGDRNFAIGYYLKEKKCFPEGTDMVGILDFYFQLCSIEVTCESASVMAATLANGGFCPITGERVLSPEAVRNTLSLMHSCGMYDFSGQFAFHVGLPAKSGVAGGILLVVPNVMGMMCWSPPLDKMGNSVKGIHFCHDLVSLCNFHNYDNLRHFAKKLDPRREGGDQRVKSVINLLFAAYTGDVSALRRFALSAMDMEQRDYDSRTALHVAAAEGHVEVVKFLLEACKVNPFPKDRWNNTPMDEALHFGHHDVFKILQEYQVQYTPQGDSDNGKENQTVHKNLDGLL", "assay": "qHTS for Inhibitors of Glutaminase (GLS)", "details": "GLS enzymatic activity, qHTS titration; series mostly up to 45.5 µM", "outline": "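Human kidney-isoform GLS in 45 mM KH2PO4 pH 8.2, 0.02% Tween-20, with compound, started with 1mM L-Glutamine (added stock). Glutamate oxidase/HRP/Amplex red coupled fluorescence read at start and after 30 min at RT.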"}
{"compound": "CC(/C=N/n1c(C2CCCCC2)n[nH]c1=S)=C\\c1ccccc1", "Potency": "inconclusive [inhibitor, single point]"}
{"compound": "Cc1ccc(S(=O)(=O)N/N=C/c2ccc(O)cc2O)cc1[N+](=O)[O-]", "Potency": "inconclusive [inhibitor, single point]"}
{"compound": "O=C(Oc1ccc(Br)cc1C(=S)N1CCCCC1)c1cc([N+](=O)[O-])cc([N+](=O)[O-])c1", "Potency": "inactive"}
{"compound": "COc1cccc(OCc2cc(C(=O)NCCc3cccc(C)n3)no2)c1", "Potency": "inconclusive [inhibitor, single point]"}
{"compound": "CCC(=O)OCOc1ccc(/C=C2/CCC(CN(C)C)C2=O)cc1", "note": "(configuration not stated)", "Potency": "inconclusive [inhibitor, single point]"}
{"compound": "COc1cc(C)nc(Nc2nc(C)c(C(C)=O)s2)n1", "Potency": "inconclusive [inhibitor, single point]"}
{"compound": "CCOC(=O)c1c(C)n(-c2ccc(OC)cc2)c2ccc(OC(=O)COc3ccccc3)cc12", "Potency": "inactive"}
{"compound": "O=C(CNC(=O)/C=C/c1ccco1)N=Nc1c(O)[nH]c2ccccc12", "Potency": "inconclusive [inhibitor, partial curve]"}
{"compound": "CCOC(=O)CSc1nnc(-c2ccc(NS(=O)(=O)c3ccc(C)cc3)cc2)o1", "Potency": "inactive"}
{"compound": "Cc1cc(C)n(-c2nc3ccccc3c(=O)n2OCCOc2ccccc2)n1", "Potency": "inconclusive [inhibitor, single point]"}
{"compound": "O=C(Nc1ccc(S(=O)(=O)N2CCC(c3nc4ccccc4s3)CC2)cc1)c1ccccc1", "Potency": "inconclusive [inhibitor, single point]"}
{"compound": "COC(=O)c1cccc(-c2ccc(C(c3c(C)[nH][nH]c3=O)c3c(C)[nH][nH]c3=O)o2)c1", "Potency": "inconclusive [inhibitor, partial curve]"}
{"compound": "Nc1ncnc2c1ncn2[C@@H]1O[C@H](CNC(=O)OC[C@@H](N)Cc2ccccc2)[C@@H](O)[C@H]1O", "Potency": "inconclusive [inhibitor, single point]"}
{"compound": "C=CCSc1nc2c(sc3nc(C)cc(C)c32)c(=O)[nH]1", "Potency": "inconclusive [inhibitor, single point]"}
{"compound": "CCCCCCCCCCCCCCCCn1cc[n+](CC(C)=O)c1", "Potency": "inconclusive [inhibitor, single point]"}
{"compound": "COc1ccc(NC(=O)CSC2=Nc3ccccc3C3=NC(CC(=O)NCCc4ccccc4)C(=O)N23)cc1", "note": "(configuration not stated)", "Potency": "inconclusive [inhibitor, single point]"}
{"compound": "CC(C)(C)C1CCc2c(sc(NC(=O)c3cccc(Cl)c3)c2C(=O)NCc2ccco2)C1", "note": "(configuration not stated)", "Potency": "inactive"}
